# Measured values: PubChem BioAssay (NCATS)
# Records with an inconclusive call do not appear. The call rests on the fitted dose curve; in most records, active means well fitted curve in the direction sought with a large enough effect; inconclusive means small, poorly fitted or top-dose-only effect, or another doubt; inactive means no such curve, though single readings can be large; an effect the other way counts as inactive or inconclusive. For part of its entries the source gives two or more results. This list holds those alone. An entry can have further records. The values listed for one entry repeat one measurement (runs, samples, wells, individuals or studies). Some compounds were tested as several samples or in several runs, with calls that do not always agree. What stands in brackets tells the records apart. The letters are not those of the source and start again with each entry. Additions like (4×) count equal records among those shown.
# What was measured:
# [1] = qHTS of pediatric cancer cell lines to identify multiple opportunities for drug repurposing: Primary screen for U-2 OS cells (AID 1347096); further: nearly all actives have a fitted effect of over 50% in size; further: potency means the concentration at half of the fitted maximal effect
# Method in brief: (§1)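 Cells (500-1,000/well) in growth media were settled 5 h at 37 degrees C, then given compounds for 48 h. Viability was read as CellTiter-Glo luminescence. Primary runs used MIPE at 11 points (0.78 nM-46 µM) and NPC at 8 points (0.59 nM-46 µM); follow-ups used 11 points.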
# [2] = qHTS of pediatric cancer cell lines to identify multiple opportunities for drug repurposing: Primary screen for Rh18 cells (AID 1347102); further: nearly all actives have a fitted effect of over 65% in size; further: potency means the concentration at half of the fitted maximal effect
# Method in brief: as §1
# [3] = qHTS of pediatric cancer cell lines to identify multiple opportunities for drug repurposing: Primary screen for control Hh wild type fibroblast cells (AID 1347106); further: nearly all actives have a fitted effect of over 55% in size; further: potency means the concentration at half of the fitted maximal effect
# Method in brief: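 Viability after 48 h compound treatment at 37C, 500-1,000 cells/well, read as ATP luminescence with CellTiter-Glo. Primary screens used 11-point (MIPE, 0.78 nM-46 µM) or 8-point (NPC, 0.59 nM-46 µM) final concentrations; follow-up screens used 11-point dilutions.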
# [4] = tested on: Zika virus NS2B-NS3 protease; assay: Primary screen GU AMC qHTS for Zika virus inhibitors (AID 1347154); further: nearly all actives have a fitted effect of over 70% in size; further: potency means the concentration at half of the fitted maximal effect
# Method in brief: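 Unlinked Zika NS2B hydrophilic domain/NS3 protease domain noncovalent complex (25 nM final) in 10 mM Tris-HCl pH 8.0, 0.01% Tween 20, with AMC peptide substrate. Fluorescence (ex 340, em 450 nm) change over 15 min, room temperature; percent inhibition fitted to 4-parameter Hill equation.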
# [5] = qHTS Assay for Lipid Storage Modulators (AID 1519); settings: Drosophila S3 cells, BODIPY lipid droplet/cell ratio, laser cytometry, cells loaded with oleic acid
# Method in brief: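 Cells seeded at 5,000 per well were treated with compounds over a concentration series and loaded with oleic acid (400 uM, as added). Lipid droplet fluorescence (488 nm excitation, 500-530 nm channel) was read by laser-scanning cytometry and normalized to 20 uM Triacsin C.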
# [6] = qHTS of pediatric cancer cell lines to identify multiple opportunities for drug repurposing: Primary screen for SK-N-SH cells (AID 1347098); further: nearly all actives have a fitted effect of over 65% in size; further: potency means the concentration at half of the fitted maximal effect
# Method in brief: (§2)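 Cells (500-1,000/well) rested 5 h, then received compounds for 48 h; metabolically active cells were measured by CellTiter-Glo luminescence. Final concentrations spanned up to 46 µM (MIPE, 11-point) or 0.59 nM-46 µM (NPC, 8-point) in primary screens, 11-point in follow-ups.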
# [7] = qHTS of pediatric cancer cell lines to identify multiple opportunities for drug repurposing: Primary screen for OHS-50 cells (AID 1347103); further: nearly all actives have a fitted effect of over 40% in size; further: potency means the concentration at half of the fitted maximal effect
# Method in brief: as §2
# [8] = qHTS of pediatric cancer cell lines to identify multiple opportunities for drug repurposing: Primary screen for RD cells (AID 1347104); further: nearly all actives have a fitted effect of over 55% in size; further: potency means the concentration at half of the fitted maximal effect
# Method in brief: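 Readout: CellTiter-Glo luminescence, 48 h treatment. Controls DMSO (neutral) and bortezomib 2.3 µM final (positive). Potency and efficacy taken from primary-screen concentration-response curves.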
# [9] = tested on: Zika virus NS2B-NS3 protease (linked); assay: 384 well plate NINDS AMC confirmatory qHTS for Zika virus inhibitors (AID 1347163); further: nearly all actives have a fitted effect of over 50% in size; further: potency means the concentration at half of the fitted maximal effect
# Method in brief: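 Linked NS2B-NS3 protease (final 5 nM, 30 nM or 60 nM) was preincubated with compounds (final up to 1 mM) for ~15 minutes. Ac-VKTGKR-AMC substrate (final 30 microM) then reacted for 25 minutes at room temperature in the dark. Fluorescence (ex 355/em 460 nm) was normalized to no-enzyme and no-inhibitor controls.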
# [10] = Primary qHTS for inhibitors of La Crosse Virus (LACV) - induced cell death in SH-SY5Y cells (AID 1508616); further: potency means the concentration at half of the fitted maximal effect
# Method in brief: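 SH-SY5Y cells (6000/well) plated 24 h, then given compounds by pin transfer and LACV at 0.01 MOI for 6 days at 37C. Viability measured by ATPLite luminescence, normalized to infected DMSO and uninfected DMSO.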
# [11] = Counterscreen qHTS for small molecule stabilizers of the endoplasmic reticulum resident proteome: GLuc-NoTag assay (AID 1508627); further: potency means the concentration at half of the fitted maximal effect
# Method in brief: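 SH-SY5Y cells stably expressing constitutively secreted GLuc (no SERCaMP tag) were pre-incubated 5 h, treated with compound for 19 h, then 100 nM thapsigargin for 4 h at 37C; medium GLuc read by coelenterazine luminescence.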
# [12] = Confirmatory qHTS for small molecule stabilizers of the endoplasmic reticulum resident proteome: Secreted ER Calcium Modulated Protein (SERCaMP) assay (AID 1508628); further: nearly all actives have a fitted effect of over 40% in size; further: potency means the concentration at half of the fitted maximal effect
# Method in brief: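 SH-SY5Y cells stably expressing GLuc-SERCaMP, treated 16 h with compound (primary 1.53, 7.67, 38.3 uM; confirmation 11 concentrations, up to 76.6 uM), then 100 nM thapsigargin for 4 h. Secreted Gaussia luciferase in medium read by coelenterazine luminescence.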
compound,measurement,setting,value
Cn1cnc2c1c(=O)[nH]c(=O)n2C,Potency,[1],inactive [sample A] and active: 18.7 µM [sample B]
same,Potency,[2],inactive [sample A] and active: 26.4 µM [sample B]
CN(C)CCCN1c2ccccc2CCc2ccc(Cl)cc21,Potency,[1],active: 9.35 µM [sample A] and inactive [sample B]
same,Potency,[3],active: 264 nM [sample A] and inactive [sample B]
CC(C)NCC(O)c1ccc(O)c(O)c1 (configuration not stated),Potency,[2],active: 5.9 µM [sample A] and inactive [sample B]
CC(C)C(=O)Nc1ccc([N+](=O)[O-])c(C(F)(F)F)c1,Potency,[3],inactive [sample A] and active: 14.8 µM [sample B]
OCCN(CCO)c1nc(N2CCCCC2)c2nc(N(CCO)CCO)nc(N3CCCCC3)c2n1,Potency,[4],active: 21.2 µM [sample A] and inactive [sample B]
COc1ccc2[nH]cc(CCNC(C)=O)c2c1,max response,[5]; measured here: cell count channel max response,"-1.52, 13.7, -38.8, 18.7% [separate samples]"
same,max response,[5]; measured here: lipid channel max response,"1.9, 28.4, -51.2, 25.4% [separate samples]"
O=C(Nc1ccc([N+](=O)[O-])cc1Cl)c1cc(Cl)ccc1O,Potency,[6],active: 1.68 µM [sample A] and inactive [sample B]
CC1(CN2CCC(n3c(=O)[nH]c4ccccc43)CC2)OCc2ccccc2-n2cccc21 (configuration not stated),Potency,[7],inactive [sample A] and active: 30.9 µM [sample B]
O=C1Cc2cc(CCN3CCN(c4nsc5ccccc45)CC3)c(Cl)cc2N1,Potency,[8],inactive [sample A] and active: 33.2 µM [sample B]
same,Potency,[9],inactive [sample A] and active: 10 µM [sample B]
COC(=O)Nc1nc2ccc(C(=O)c3cccs3)cc2[nH]1,Potency,[10],inactive [sample A] and active: 100 nM [sample B]
Cc1ccc(C(=O)Nc2ccc(S(=O)(=O)O)c3cc(S(=O)(=O)O)cc(S(=O)(=O)O)c23)cc1NC(=O)c1cccc(NC(=O)Nc2cccc(C(=O)Nc3cc(C(=O)Nc4ccc(S(=O)(=O)O)c5cc(S(=O)(=O)O)cc(S(=O)(=O)O)c45)ccc3C)c2)c1,Potency,[11],inactive [sample A] and active: 7.08 µM [sample B]
CN1C2CCC1CC(OC(=O)C(CO)c1ccccc1)C2 (configuration not stated),Potency,[11],inactive [sample A] and inactive [sample B] and active: 25.1 µM [sample C]
O=c1c(O)c(-c2ccc(O)c(O)c2)oc2cc(O)cc(O)c12,Potency,[12],"active: 8.91, 31.6 (2×), 3.16, 25.1, 12.6, 6.31, 5.62, 7.94, 15.8 µM and inactive [separate samples]"
